Assay results as given in PubChem BioAssay AID686970 (National Center for Advancing Translational Sciences (NCATS), 2013).
Among all 360,000 compounds or so, about 6,000 (1.7%) were called active. Not shown: some 8% with an inconclusive outcome. The call rests on the fitted dose curve; in most records, active means well fitted cell-killing curve with a large enough effect; inconclusive means small, poorly fitted or top-dose-only effect, or effect the other way; inactive means flat fitted curve, though single readings scatter. The entries are a selection whose mix differs from that of the whole data set.

Assay: qHTS for induction of synthetic lethality in tumor cells producing 2HG: qHTS for the HT-1080-NT fibrosarcoma cell line; further: nearly all actives have a fitted effect of over 55% in size
Settings: HT-1080-NT fibrosarcoma viability, CellTiter-Glo ATP luminescence, 48 h; series mostly up to 46.1 µM; activity, negative = less viability: at the top concentration
Excerpt: Unbiased genomic sequencing for 22 glioma genomes found recurrent mutation of IDH1 on chromosome 2q33, a gene encoding the cytosolic isoform of IDH1 associated with the tricarboxylic acid cycle (TCA) that catalyzes the oxidative decarboxylation of isocitrate, yielding alpha-ketoglutarate and CO2 via NADP+ to NADPH conversion. Subsequent studies confirmed the recurrent IDH mutations in up to 70% of secondary gliomas and in 10% of AML cases. In addition, the somatic mutation of cancer-associated IDH1 is a point mutation resulting in various amino-acid substituents at Arginine132 (IDH1 R132), a key residue found in the enzyme's active site that when mutated, results in the loss-of-function in metabolizing isocitrate but confers a gain-of-function to produce the oncometabolite 2-hydroxyglutarate (2HG). This in effect defines IDH1 as an oncogene and provides an extraordinary opportunity to discover chemical probes against mutant IDH1 that may translate into much needed new therapies for glioma and AML patients.
This assay aims to perform a synthetic lethal screen for chemical probes specific for 2HG-producing tumor cells using matched paired cell lines (1) HT-1080-NT fibrosarcoma cell line that overproduces 2HG and (2) HT-1080-IDH1KD cell line which has IDH1 expression knocked-down. Desirable compounds are toxic to the NT fibrosarcoma cells but not to the IDH1KD cell line. The data in this AID corresponds to the results of the qHTS against the HT-1080-NT fibrosarcoma cell line.
[1] Dang L, Jin S, Su SM. IDH mutations in glioma and acute myeloid leukemia. Trends of Mol Med. 2010; 16(9): 387-97.
[2] Dang L et al. Cancer-associated IDH1 mutations produce 2-hydroxyglutarate. Nature. 2010; 465(7300):966.
NIH Molecular Libraries Probe Production Centers Network [MLPCN]
NIH Chemical Genomics Center [NCGC]
Assay Submitter (PI): Lenny Dang Ph.D., Agios Pharmaceuticals
Suspensions of trypsinized HT-1080-NT cells were dispensed into white, tissue culture-treated, solid 1536-well plates at 5uL/well (750 cells/well final concentration) in RPMI medium supplemented with 5% FBS. Plates were incubated at 37 degrees C for 2 hours, after which 23 nL of compounds or DMSO were delivered to each well using a pin tool. Plates were then incubated at 37 degrees C for an additional 48 hours. CellTiter-Glo viability reagent (Promega) was dispensed into wells (2.5uL/well) and incubated at room temperature for 10 minutes. The plates were measured on a PerkinElmer ViewLux plate reader for luminescent signal (clear filter, 1 sec exp). DMSO-treated control wells and media-only (no cells) control wells were used to normalize %Activity of identified toxic compounds; DMSO-treated wells corresponded to 0%Activity (100% viability), while media-only controls were used to normalize 100%Activity (0% viability).
Concentration-response curves were fitted to the signals arising from the resulting luminescence. The concentration-effect curves were then classified based on curve quality (r2), response magnitude and degree of measured activity, and compounds were subsequently categorized based on their curve class.
Potency means the concentration at half of the fitted maximal effect.

| SMILES | activity, negative = less viability | Potency |
| --- | --- | --- |
| COc1ccc2c(c1OC)C(=O)OC2C1c2cc3c(cc2CCN1C)OCO3 (stereo not drawn) | inactive: 6.36% | – |
| C[CH2][Hg][S]c1ccccc1C(=O)O | – | active: 2.31 µM |
| CC[C@@H](CO)NC(=O)[C@@H]1C=C2c3cccc4c3c(cn4C)C[C@H]2N(C)C1 | inactive: -19% | – |
| C[C@]12CC[C@H](O)C[C@H]1CC[C@@H]1[C@@H]2CC[C@]2(C)C(=O)CC[C@@H]12 | inactive: 2.66% | – |
| N#C/C(=C\c1ccc(O)cc1)C(=O)O (tested in a mixture with another compound) | inactive: -0.408% | – |
| C=CC[C@@H](CC/C=C/C=C/CC/C=C\[C@@H]1CSC([C@@H]2C[C@@H]2C)=N1)OC | – | active: 2.31 µM |
| CC12CC3CC(C)(C1)CC(N)(C3)C2 | inactive: -4.06% | – |
| CNC(=O)Oc1ccc2c(c1)[C@]1(C)CCN(C)[C@@H]1N2C | inactive: 17.6% | – |
| CC(=O)OCC[N+](C)(C)C | – | inactive |
| COc1ccc2[nH]c3c(c2c1)CCNC3C (stereo not drawn) | inactive: -0.7% | – |
| C[C@]12CC[C@@H](O)C[C@H]1CC[C@@H]1[C@@H]2CC[C@]2(C)C(=O)CC[C@@H]12 | inactive: -0.108% | – |
| CCCC[N+]1(C)C2CC(OC(=O)C(CO)c3ccccc3)CC1C1OC12 (stereo not drawn) | inactive: 22.9% | – |
| COc1ccc2c(c1OC)C(=O)O[C@H]2[C@@H]1c2cc3c(cc2CCN1C)OCO3 | inactive: 19.7% | – |
| O=C(O)c1cc[c]([Hg][Cl])cc1 | – | active: 16.4 µM |
| COc1nc(C)nc(Cl)c1NC1=NCCN1 | inactive: -1.9% | – |
| CCN1/C(=C/C=C/C2=[N+](CC)c3ccccc3C2(C)C)C(C)(C)c2ccccc21 | – | active: 9.2 µM |
| NC(N)=N/N=C/c1c(Cl)cccc1Cl | inactive: -19.3% | – |
| CCC(COC(=O)c1cc(OC)c(OC)c(OC)c1)(c1ccccc1)N(C)C (stereo not drawn) | inactive: 3.29% | – |
| c1ccc(-c2cc(-c3ccccc3)[n+](-c3ccccc3)c(-c3ccccc3)c2)cc1 | – | active: 3.66 µM |
| CC[C@H]1CN2CCC1C[C@@H]2[C@@H](O)c1ccnc2ccc(OC)cc12 (stereo partly drawn) | inactive: -6.2% | – |
| Cn1cccc1/C=C1/C(=O)NC(=O)N(Cc2ccccc2)C1=O | inactive: -17.4% | – |
| Nc1ncc2[nH]cnc2n1 | inactive: 0.393% | – |
| CN(C)[C@@H]1C(=O)C(C(N)=O)=C(O)[C@@]2(O)C(=O)C3=C(O)c4c(O)ccc(Cl)c4[C@@](C)(O)[C@H]3C[C@@H]12 | inactive: -8.43% | – |
